# From the supplement of paper PMC3334620
# In all, about 33,000 sequences were measured (“E-score (-0.5 to 0.5)”: median about -0.011, highest 2% from about 0.28 on). The list shows a part of the results.
# Target: T1, Gcr1 (UniProt P07261)
# T1 sequence: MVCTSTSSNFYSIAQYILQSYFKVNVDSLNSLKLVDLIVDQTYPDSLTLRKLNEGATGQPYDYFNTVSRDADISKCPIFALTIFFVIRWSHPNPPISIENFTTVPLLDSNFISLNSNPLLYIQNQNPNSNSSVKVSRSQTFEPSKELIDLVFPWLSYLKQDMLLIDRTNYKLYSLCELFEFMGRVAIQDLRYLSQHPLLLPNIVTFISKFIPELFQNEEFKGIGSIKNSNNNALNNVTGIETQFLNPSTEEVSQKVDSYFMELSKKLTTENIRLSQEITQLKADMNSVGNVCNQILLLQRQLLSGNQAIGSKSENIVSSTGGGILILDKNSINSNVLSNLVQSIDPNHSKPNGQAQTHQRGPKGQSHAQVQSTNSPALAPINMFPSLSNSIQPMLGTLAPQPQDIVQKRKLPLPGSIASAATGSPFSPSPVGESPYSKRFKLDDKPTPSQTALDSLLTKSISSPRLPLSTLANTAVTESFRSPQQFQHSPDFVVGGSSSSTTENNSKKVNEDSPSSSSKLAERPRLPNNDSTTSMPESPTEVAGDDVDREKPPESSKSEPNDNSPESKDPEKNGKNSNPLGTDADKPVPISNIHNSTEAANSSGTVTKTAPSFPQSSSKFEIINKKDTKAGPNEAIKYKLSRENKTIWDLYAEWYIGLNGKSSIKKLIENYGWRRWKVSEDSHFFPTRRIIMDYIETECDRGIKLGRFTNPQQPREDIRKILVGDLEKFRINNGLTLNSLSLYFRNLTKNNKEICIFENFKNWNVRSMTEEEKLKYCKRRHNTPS
# Test: PBM E-score (8-mer binding enrichment) (E-score (-0.5 to 0.5)); higher = stronger / more preferred TF binding; most listed sequences are background and not binding sites
# Details: protein concentration: 100 nM; construct: GST-full length
# Procedure: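 Universal 'all 10-mer' protein binding microarrays (Agilent AMADID 015681) probed with GST-tagged S. cerevisiae TFs (full-length or DBD) made by in vitro transcription/translation (PURExpress), about 100-200 nM. Bound TF was detected with fluorescent anti-GST. Each ungapped 8-mer (which stands for itself and its reverse complement) is scored by the PBM enrichment score (E-score), a modified Wilcoxon-Mann-Whitney statistic from -0.5 to +0.5, computed with the Universal PBM Analysis Suite. Scale: above 0.35 generally sequence-specific binding.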
row,Sequence,PBM E-score
1,AGAACCGC,0.0903
2,AGACACTC,-0.168
3,GCGGATGA,-0.145
4,CTGATGAC,0.0532
5,ACCAATCT,0.0812
6,GTGGATCA,0.0278
7,ACACCTCC,-0.254
8,AGGCGTTG,-0.036
9,CATGAGAG,-0.119
10,ACCCTCGC,-0.0776
11,ATACAATA,-0.0401
12,AAAAAACG,0.0715
13,CAGATTCC,0.388
14,CGCTAATC,0.125
15,CCGTTAGC,0.146
16,AAGCAACT,-0.094
17,CTATCGCC,-0.00847
18,CGGTGATA,-0.0221
19,AACCTCCC,-0.123
20,GGAATTTA,0.0917
21,AGTAGTTG,0.245
22,CTGACCTC,-0.103

row,Sequence,PBM E-score
1,GTGAAAGA,0.0445
2,TACCGCGA,-0.0665
3,AAATCGTG,0.226
4,CAAGGAAG,0.143
5,GAGATACC,0.175
6,ATCCCTTG,-0.198
7,GTAGGGCA,-0.133
8,TGAGTGAA,-0.125
9,GATGTCCA,0.131
10,GCCGGACC,-0.114
11,CTTGTATC,0.0702
12,CACCTCAC,-0.132
13,ATCAGAAG,0.158
14,AGGCAGCG,0.0171
15,CTTTTACA,0.23
16,ACATGAGG,0.0641
17,CATTAGTC,-0.0348
18,ACCGTTGG,-0.0812
19,ACGGCGCA,-0.265
20,GGTGTAAC,-0.0231
21,CGAAAGAC,-0.0893
22,ACGGGGTC,-0.0236

row,Sequence,PBM E-score
1,ATTCAGCC,0.0229
2,ATCCCACA,0.0178
3,CCCACGGC,-0.111
4,ATGCACGG,-0.235
5,GAAAGAGC,-0.152
6,CCCAAACG,-0.0346
7,AGGGTCTA,-0.279
8,GAATATGA,0.164
9,GCAGGCCA,-0.185
10,AAATGACG,-0.0759
11,CGAGGTAG,-0.17
12,CTCAACGC,-0.113
13,AACCTGAG,0.0471
14,GCACCTCA,0.114
15,CATCTTAA,0.00345
16,CGCTTCAG,0.0898
17,GTCTACTA,0.125
18,ACAACGGC,-0.109
19,ATGATGAG,-0.104
20,CAGCACGC,-0.197
21,CGCACCCA,0.236
22,ACGTTATA,-0.056

row,Sequence,PBM E-score
1,CCAGGATA,0.00241
2,CATGCGGA,0.0299
3,AGTGCACC,-0.123
4,ACACACAG,-0.0596
5,AAGGCGGA,0.00504
6,GTAGTTGA,0.0635
7,CGTCGACG,-0.0825
8,AAGGGAGG,-0.112
9,AGTGCATC,-0.128
10,ACAACCCA,-0.0863
11,GGGCAGCA,0.142
12,CCGACCAA,-0.0956
13,AGGCTCGA,-0.0943
14,CCACTCTC,0.0767
15,ACAGTCGC,-0.208
16,ACGACACT,-0.19
17,AGCCCATC,0.104
18,ATTCTAGA,0.0876
19,ACGTCGTA,-0.2
20,CCGGTGGA,0.0304
21,AGTGATTG,-0.00936
22,ACGAGTGG,0.151

row,Sequence,PBM E-score
1,TGGCCCAA,-0.104
2,CCACGGCG,-0.00202
3,GTTAATAA,-0.0071
4,CTGTCGAC,-0.189
5,GCAAGACA,-0.216
6,CCAGGTCG,-0.0774
7,AACGGTCT,-0.233
8,AAACACTG,0.0484
9,TGGTGAAA,0.0688
10,CAGGTCAA,-0.173
11,GGACGCCC,0.441
12,CGATCATA,-0.0928
13,GAGGAAAA,-0.182
14,AAGGTAGG,-0.0262
15,CTTCAGTA,0.00082
16,CTGCAGCA,0.099
17,CGCCGCCC,0.2
18,CAGGCAAG,-0.136
19,ACGCGCTA,-0.0483
20,ATCTGCGC,0.0766
21,GCATGCAA,-0.017
22,TAAAACCA,0.0974
